Measured values: the supplement of paper PMC8728848
Some of the results follow.

Tests used:
Test in all cases: glycan array binding signal (z-score within array); higher = stronger binding
Conditions in all cases: glycan notation: IUPAC condensed, linker removed
[1] = biological target: Gal(b1-4)GlcNAc(b1-2)Man(a1-6)[Man(a1-3)]Man(b1-4)GlcNAc(b1-4)GlcNAc
How it was run: (§1)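 Arrays were curated from the Consortium for Functional Glycomics database, 3228 in total, and kept only where the protein sequence was available. Binding is expressed as a within-array Z-score. This score was averaged across arrays of the same protein sequence at different concentrations or buffers and across linkers, and negative values can be read as non-binding.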

[2] = biological target: Gal(b1-4)GlcNAc(b1-2)[Gal(b1-4)GlcNAc(b1-4)]Man(a1-3)[Gal(b1-4)GlcNAc(b1-2)Man(a1-6)]Man(b1-4)GlcNAc(b1-4)GlcNAc
How it was run: as §1

[3] = biological target: Gal(b1-4)GlcNAc(b1-2)[Gal(b1-4)GlcNAc(b1-4)]Man(a1-3)[Gal(b1-4)GlcNAc(b1-2)[Gal(b1-4)GlcNAc(b1-6)]Man(a1-6)]Man(b1-4)GlcNAc(b1-4)GlcNAc
How it was run: as §1

[4] = biological target: Gal(b1-4)GlcNAc(b1-2)[Gal(b1-4)GlcNAc(b1-4)]Man(a1-3)[GlcNAc(b1-4)][Gal(b1-4)GlcNAc(b1-2)Man(a1-6)]Man(b1-4)GlcNAc(b1-4)GlcNAc
How it was run: as §1

[5] = biological target: Gal(b1-4)GlcNAc(b1-2)[Gal(b1-4)GlcNAc(b1-4)]Man(a1-3)[GlcNAc(b1-4)][Gal(b1-4)GlcNAc(b1-2)[Gal(b1-4)GlcNAc(b1-6)]Man(a1-6)]Man(b1-4)GlcNAc(b1-4)GlcNAc
How it was run: as §1

[6] = biological target: Gal(b1-4)GlcNAc(b1-2)[Gal(b1-4)GlcNAc(b1-6)]Man(a1-6)[Gal(b1-4)GlcNAc(b1-2)Man(a1-3)]Man(b1-4)GlcNAc(b1-4)GlcNAc
How it was run: as §1

[7] = biological target: Gal(b1-4)GlcNAc(b1-2)[Gal(b1-4)GlcNAc(b1-6)]Man(a1-6)[Gal(b1-4)GlcNAc(b1-2)Man(a1-3)]Man(b1-4)GlcNAc(b1-4)[Fuc(a1-6)]GlcNAc
How it was run: as §1

[8] = biological target: Gal(b1-4)GlcNAc(b1-2)[Gal(b1-4)GlcNAc(b1-6)]Man(a1-6)[GlcNAc(b1-4)][Gal(b1-4)GlcNAc(b1-2)Man(a1-3)]Man(b1-4)GlcNAc(b1-4)GlcNAc
How it was run: as §1

[9] = biological target: Gal(b1-4)GlcNAc(b1-2)[Gal(b1-4)GlcNAc(b1-6)]Man(a1-6)[GlcNAc(b1-4)][Gal(b1-4)GlcNAc(b1-2)[Gal(b1-4)GlcNAc(b1-4)]Man(a1-3)]Man(b1-4)GlcNAc(b1-4)[Fuc(a1-6)]GlcNAc
How it was run: as §1

[10] = biological target: Gal(b1-4)GlcNAc(b1-3)Gal(b1-3)GalNAc
How it was run: as §1

[11] = biological target: Gal(b1-4)GlcNAc(b1-3)Gal(b1-3)GlcNAc
How it was run: as §1

[12] = biological target: Gal(b1-4)GlcNAc(b1-3)Gal(b1-4)Glc
How it was run: as §1

[13] = biological target: Gal(b1-4)GlcNAc(b1-3)Gal(b1-4)GlcNAc
How it was run: as §1

[14] = biological target: Gal(b1-4)GlcNAc(b1-3)Gal(b1-4)GlcNAc(b1-2)Man(a1-3)[Gal(b1-4)GlcNAc(b1-3)Gal(b1-4)GlcNAc(b1-2)Man(a1-6)]Man(b1-4)GlcNAc(b1-4)GlcNAc
How it was run: as §1

[15] = biological target: Gal(b1-4)GlcNAc(b1-3)Gal(b1-4)GlcNAc(b1-2)Man(a1-3)[Gal(b1-4)GlcNAc(b1-3)Gal(b1-4)GlcNAc(b1-2)Man(a1-6)]Man(b1-4)GlcNAc(b1-4)[Fuc(a1-6)]GlcNAc
How it was run: as §1

[16] = biological target: Gal(b1-4)GlcNAc(b1-3)Gal(b1-4)GlcNAc(b1-2)[Gal(b1-4)GlcNAc(b1-3)Gal(b1-4)GlcNAc(b1-6)]Man(a1-6)[Gal(b1-4)GlcNAc(b1-3)Gal(b1-4)GlcNAc(b1-2)Man(a1-3)]Man(b1-4)GlcNAc(b1-4)GlcNAc
How it was run: as §1

[17] = biological target: Gal(b1-4)GlcNAc(b1-3)Gal(b1-4)GlcNAc(b1-2)[Gal(b1-4)GlcNAc(b1-3)Gal(b1-4)GlcNAc(b1-6)]Man(a1-6)[Gal(b1-4)GlcNAc(b1-3)Gal(b1-4)GlcNAc(b1-2)Man(a1-3)]Man(b1-4)GlcNAc(b1-4)[Fuc(a1-6)]GlcNAc
How it was run: as §1

[18] = biological target: Gal(b1-4)GlcNAc(b1-3)Gal(b1-4)GlcNAc(b1-3)Gal(b1-4)GlcNAc
How it was run: as §1

B1: GSL-I-B4 (Griffonia simplicifolia) (protein)
chain: NFWSDVEDSIIFQGDANTTAGTLQLCKTNQYGTPLQWSAGRALYSDPVQLWDNKTESVASFYTEFTFFLKITGNGPADGLAFFLAPPDSDVKDAGEYLGLFNKSTATQPSKNQVVAVEFDTWTNPNFPEPSYRHIGINVNSIVSVATKRWEDSDIFSGKIATARISYDGSAEILTVVLSYPDGSDYILSHSVDMRQNLPESVRVGISASTGNNQFLTVYILSWRFSSNLQSTSVKAAMEPEITRTVV
glycan array binding signal (z-score) [1]: -0.163 | glycan array binding signal (z-score) [2]: -0.138 | glycan array binding signal (z-score) [3]: -0.142 | glycan array binding signal (z-score) [4]: -0.197 | glycan array binding signal (z-score) [5]: -0.191 | glycan array binding signal (z-score) [6]: -0.223 | glycan array binding signal (z-score) [7]: -0.226 | glycan array binding signal (z-score) [8]: -0.147 | glycan array binding signal (z-score) [9]: -0.169 | glycan array binding signal (z-score) [10]: -0.107 | glycan array binding signal (z-score) [11]: -0.171 | glycan array binding signal (z-score) [12]: -0.19 | glycan array binding signal (z-score) [13]: -0.209 | glycan array binding signal (z-score) [14]: 0.028 | glycan array binding signal (z-score) [15]: -0.049 | glycan array binding signal (z-score) [16]: -0.178 | glycan array binding signal (z-score) [17]: -0.159 | glycan array binding signal (z-score) [18]: -0.172
